Laboratory results from PubChem BioAssay AID651820 (National Center for Advancing Translational Sciences (NCATS), 2012).
Hit rate of the full screen: of about 340,000 compounds, about 12,000 (3.5%) were called active. The inconclusive results got no clear call from the source; some entries with a clear call stand among them for comparison. Calls follow the shape of the dose curve; as a rule, active = well fitted inhibition curve with a large enough effect; inconclusive = small, poorly fitted or top-dose-only effect, or another doubt; inactive = no such curve, though single readings can be large or run the other way. Potencies of inconclusive entries are left out as doubtful fits.
Potency is read from the fitted curve at half-maximal effect; tags tell the direction and shape of the fitted curve.

Experiment: qHTS Assay for Inhibitors of Hepatitis C Virus (HCV)
Conditions: Huh7.5.1 HCVcc-Cre (HCVcc is cell-culture hepatitis C virus) infection, luciferase reporter, 44 h; series mostly up to 41.8 µM
Summary of the method: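 HCVcc-Cre virus at an moi near 0.5 was added right after compound to cells cultured 4 h from seeding (1,000 cells/well). Luciferase activity was determined 44 h later, 15 min after substrate addition at RT.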
In the case of `COc1cccc(C(=O)NCC(c2ccc3c(c2)OCO3)N2CCN(c3ccc(F)cc3)CC2)c1` (centres undefined), the Potency is reported as inconclusive [inhibitor, single point].
For `CC(=O)n1cc([C@H]2C=C(C(=O)N3CCN(Cc4ccccc4)CC3)O[C@@H](OCc3ccc(CO)cc3)C2)c2ccccc21`, the Potency was inconclusive [inhibitor, partial curve].
With `CCC(=O)N/C(=N/c1nc(C)cc(C)n1)Nc1ccc(OC)cc1` the Potency was “inactive”.
In the case of `CCn1cc(/C=N/NC(=O)COc2cccc3cccnc23)c2ccccc21`, the Potency is reported as inconclusive [inhibitor, partial curve].
For `Cn1nccc1C(=O)N(CCN1CCCCC1)CC1CCCN(C2CCCC2)C1` (centres undefined), the Potency was active: 14.1 µM.
For `Cc1cc(C(=O)Nc2ccc(C)c(S(=O)(=O)N3CCOCC3)c2)c2ccccc2n1`, the Potency was active: 11.2 µM.
For `COc1cc(NC(=O)CSc2ncnc3sc4c(c23)CCCC4)c(C(=O)O)cc1OC`, the Potency was “inactive”.
For `O=C(Nc1cccc(S(=O)(=O)N2CCCCCC2)c1)c1ccc2ccccc2n1`, the Potency was inconclusive [inhibitor, partial curve, poor fit].
In the case of `OC(COCc1cccs1)CN1CCN(c2cccc(Cl)c2)CC1` (centres undefined), the Potency is reported as inconclusive [inhibitor, full curve, poor fit].
With `O=C(Nc1cccc(Cl)c1)N1CCC(CO)(CCOc2ccccc2)CC1` the Potency was “inactive”.
With `CCNc1nc(N2CCCC2)nc(N2CCCC2)n1` the Potency was active: 11.2 µM.
With `COc1ccc(-c2ccc(/C=C3/C(=N)N4C(C)=CSC4=NC3=O)o2)c([N+](=O)[O-])c1` the Potency was “inactive”.
For `O=C(Nc1nsc(-c2ccccc2)n1)c1cccs1`, the Potency was inconclusive [inhibitor, single point].
With `COc1ccc2cc3cc(C(=O)NCCN4CCc5ccccc5C4)oc3nc2c1` the Potency was inconclusive [inhibitor, partial curve].
In the case of `CCN(CC)C(=O)[C@H]1C[C@H](CC(=O)NCc2ccc(OC)c(OC)c2)C(=O)N2CCc3c([nH]c4cc(-c5ccco5)ccc34)[C@]12C`, the Potency is reported as inconclusive [inhibitor, partial curve].
In the case of `COc1ccc([N+](=O)[O-])cc1/C=N/NC(=O)Cc1ccccc1`, the Potency is reported as inconclusive [inhibitor, partial curve].
For `CCCC(=O)NC(c1ccco1)c1c(O)ccc2ccccc12` (centres undefined), the Potency was “inactive”.
In the case of `Cc1ccc(-n2nc3c([n+]2[O-])CCc2c-3no[n+]2[O-])cc1`, the Potency is reported as “inactive”.
With `Cc1ccccc1C(=O)Nc1cccc(NC(=O)c2ccc(F)cc2)c1` the Potency was inconclusive [inhibitor, partial curve].
